In PubChem BioAssay AID1508623 (National Center for Advancing Translational Sciences (NCATS), 2021):
Out of some 48,000 compounds screened, about 450 (0.94%) were called active. Another 19% or so got no clear call; they are omitted. Calls come from the whole dose curve; as a rule, active = well fitted inhibition curve with a large enough effect; inconclusive = small, poorly fitted or top-dose-only effect; inactive = no such curve, though single readings can be large or run the other way. Some of the results follow.

experiment: Primary qHTS for Identification of Small Molecule Inhibitors of Huntingtin Promoter Activity; conditions: HEK293 HTT promoter firefly luciferase reporter (activity 0% = vehicle and -100% = no light), 24 h; series mostly up to 57.5 µM; activity change, negative = inhibition: at the top concentration; note: nearly all actives have a fitted effect of over 50% in size
How it was run: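 Firefly luciferase readout (Dual-Glo, 10 min RT) after 24 h, 37 °C compound exposure (final up to 57.5 uM) of HEK293 reporter cells cultured 24 h beforehand; PTC124 at 50 uM final as control inhibitor; activity scaled vehicle 0%, zero RLU -100%.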

Question: For CCN1CCN(C(c2ccc(C)cc2)c2sc3nc(-c4ccco4)nn3c2O)CC1 (centres undefined), which “activity change, negative = inhibition” value is on record?
Answer: inactive: 10.7%

Question: For CCOc1ccc(CCNC(=O)CSc2nnnn2-c2ccccc2Cl)cc1OCC, which “activity change, negative = inhibition” value is on record?
Answer: inactive: -19.5%

Question: For COCCn1c(=N)c(C(=O)NCC2CCCO2)cc2c(=O)n3ccccc3nc21 (centres undefined), which “activity change, negative = inhibition” value is on record?
Answer: inactive: -0.395%

Question: Which “activity change, negative = inhibition” value does the source give for COc1cccc(NC(=O)CSc2cc(C)[nH]c(=O)n2)c1 here?
Answer: inactive: 1.42%

Question: For CCN(CC)c1nn2c(=O)c(C(=O)NCc3cccc(OC)c3OC)cnc2s1, which “activity change, negative = inhibition” value is on record?
Answer: inactive: 8.27%

Question: With CCCNC(C)(C)COC(=O)c1ccccc1 as the molecule, how does the “activity change, negative = inhibition” value read?
Answer: inactive: 7.44%

Question: With CC1N=C2c3ccccc3N=C(SCC(=O)NCc3ccc(Cl)cc3)N2C1=O (centres undefined) as the molecule, how does the “activity change, negative = inhibition” value read?
Answer: inactive: -24.1%

Question: For CCS(=O)(=O)N1CC(=O)N(c2cccc(C)c2C)C(C)(C(=O)NC2CCCCCC2)C1 (centres undefined), which “activity change, negative = inhibition” value is on record?
Answer: inactive: 7.9%

Question: Which “activity change, negative = inhibition” value does the source give for COc1ccc(CNC(=O)c2cnn(-c3ccc(OC)cc3)c2C2CCN(C(=O)OC(C)(C)C)CC2)cc1 here?
Answer: inactive: -27%

Question: Which “activity change, negative = inhibition” value does the source give for Cc1nc(SCC(=O)Nc2ccccc2Cl)cc(-c2ccccc2)n1 here?
Answer: inactive: -9%

Question: Which “activity change, negative = inhibition” value does the source give for Cc1c2cnn(-c3ccccc3)c(=O)c2c(C)n1CC(=O)N1CCN(c2cccc(Cl)c2)CC1 here?
Answer: inactive: -11%

Question: With Cc1cccc2c1-c1sc(C(=O)Nc3ccccc3C(N)=O)cc1CO2 as the molecule, how does the “activity change, negative = inhibition” value read?
Answer: inactive: 50.7%

Question: With Cc1c(C(=O)N(C)c2ccccc2)sc2nc(-c3ccc(F)cc3)cn12 as the molecule, how does the “activity change, negative = inhibition” value read?
Answer: inactive: 22.6%

Question: For CCc1cc2c(cc3c(=O)n(CC(=O)NC4CCC(C)CC4)nc(CC)n32)s1 (centres undefined), which “activity change, negative = inhibition” value is on record?
Answer: inactive: 58.9%

Question: Which “activity change, negative = inhibition” value does the source give for O=C1c2oc3ccccc3c(=O)c2C(c2ccccc2F)N1Cc1ccc2c(c1)OCO2 (centres undefined) here?
Answer: inactive: -8.05%

Question: Which “activity change, negative = inhibition” value does the source give for O=C(Nc1cccc2cccnc12)c1cccc2c(Br)cccc12 here?
Answer: inactive: 6.83%

Question: Which “activity change, negative = inhibition” value does the source give for CCN(CC)CCNC(=O)c1sc2nc(C)cc(C)c2c1-n1cccc1 here?
Answer: inactive: 1.99%

Question: For COc1ccc(-n2c(Cc3ccccc3)nnc2SCc2nc(-c3ccccc3C)no2)cc1, which “activity change, negative = inhibition” value is on record?
Answer: inactive: -29.6%

Question: For Cc1ccc2onc(CNC(=O)N(C)Cc3ccccc3)c2c1, which “activity change, negative = inhibition” value is on record?
Answer: inactive: -2.58%

Question: With COc1ccc(NC(=O)Cn2ccn(Cc3ccccc3)c(=O)c2=O)cc1Cl as the molecule, how does the “activity change, negative = inhibition” value read?
Answer: inactive: -36.5%

Question: With CCc1ccccc1NC(=O)Cn1c(C(=O)OC)cc2oc(C)cc21 as the molecule, how does the “activity change, negative = inhibition” value read?
Answer: inactive: -9.42%

Question: With CCOC(=O)c1ccc(NC(=O)c2cccc3c(=O)c4c([nH]c23)CCCC4)cc1 as the molecule, how does the “activity change, negative = inhibition” value read?
Answer: inactive: -6.92%

Question: With CN(C(=O)CSc1cn(CC(=O)N2CCCC2)c2ccccc12)c1ccccc1 as the molecule, how does the “activity change, negative = inhibition” value read?
Answer: inactive: -3.93%

Question: For O=C(Nc1ccc(Br)cc1F)c1ccc2nc(CCc3ccccc3)oc2c1, which “activity change, negative = inhibition” value is on record?
Answer: inactive: 28%

Question: With O=C(Cn1ncc2c3ccccc3n(Cc3ccc(F)cc3)c2c1=O)NC1CCCCCC1 as the molecule, how does the “activity change, negative = inhibition” value read?
Answer: inactive: -10.3%

Question: Which “activity change, negative = inhibition” value does the source give for COc1ccc(Nc2nc(-c3ccccc3)c3cc(Br)ccc3n2)cc1 here?
Answer: inactive: -3.16%

Question: With Clc1ccccc1CNc1nc2ccccc2c2nc(-c3ccccc3)nn12 as the molecule, how does the “activity change, negative = inhibition” value read?
Answer: inactive: 3.79%

Question: Which “activity change, negative = inhibition” value does the source give for O=C(C1CCCCC1)N(Cc1cccnc1)c1nc2c(F)cccc2s1 here?
Answer: inactive: -28%

Question: For Cc1ccc(C)c(NC(=O)N2CCN(c3nnc(C)c4c(C)n(-c5ccccc5)nc34)CC2)c1, which “activity change, negative = inhibition” value is on record?
Answer: inactive: -13%

Question: For COc1cc2c(cc1OC)C(COc1ccccc1OC)N(C(=O)c1ccc(S(=O)(=O)N3CCCC3)cc1)CC2 (centres undefined), which “activity change, negative = inhibition” value is on record?
Answer: inactive: -13.7%

Question: With CCOc1ccccc1NC(=O)c1c(NC(=O)Cc2ccccc2)sc2c1CCCC2 as the molecule, how does the “activity change, negative = inhibition” value read?
Answer: inactive: -4.89%

Question: With Cn1cc(C(=O)N2CCN(c3cccc(Cl)c3)CC2)c(=O)c2cc(S(=O)(=O)N3CCCC3)ccc21 as the molecule, how does the “activity change, negative = inhibition” value read?
Answer: inactive: -4.63%

Question: Which “activity change, negative = inhibition” value does the source give for COC(=O)c1cc(OC)c(OC)c(OC)c1NC(=O)c1cc(=O)n(C)c(=O)n1C here?
Answer: inactive: 3.44%

Question: For CCOc1ccc(NC(=O)CSc2ccc3ccccc3n2)cc1, which “activity change, negative = inhibition” value is on record?
Answer: inactive: 18.8%

Question: For COCCCNC(=O)CN1C(=O)COc2ccc(S(=O)(=O)N3CCOCC3)cc21, which “activity change, negative = inhibition” value is on record?
Answer: inactive: -10.6%

Question: With O=C(O)Cc1cccc2ccccc12 as the molecule, how does the activity change, negative = inhibition read?
Answer: inactive

Question: With O=C(CCNS(=O)(=O)c1cccc2nonc12)Nc1ccc(F)cc1 as the molecule, how does the “activity change, negative = inhibition” value read?
Answer: inactive: -8.58%

Question: Which “activity change, negative = inhibition” value does the source give for COC(=O)c1cccc(Nc2c(-c3ccc(O)cc3)nc3nc[nH]n23)c1 here?
Answer: inactive: 0.921%

Question: Which “activity change, negative = inhibition” value does the source give for Cc1cccc(C)c1NC(=O)N1CCC(C(N)=O)(N2CCCCC2)CC1 here?
Answer: inactive: 0%

Question: Which “activity change, negative = inhibition” value does the source give for O=C(Nc1ccc(F)cc1F)c1cc2ccc3cccnc3c2[nH]1 here?
Answer: inactive: 20.5%

Question: For Cc1ccccc1Nc1cc(C(=O)NC2CCC(C)CC2)c2ccccc2n1 (centres undefined), which “activity change, negative = inhibition” value is on record?
Answer: inactive: 57.9%

Question: Which “activity change, negative = inhibition” value does the source give for CCOC(=O)c1ccc(NC(=O)c2c(NCc3cccc(OC)c3)sc3c2CCC3)cc1 here?
Answer: inactive: 6.98%

Question: With Cn1cc(S(=O)(=O)N2CCCCCC2)cc1C(=O)Nc1ccccc1F as the molecule, how does the “activity change, negative = inhibition” value read?
Answer: inactive: -23.7%

Question: For COc1cccc(C(=O)NCC(c2ccc(N(C)C)cc2)N2CCc3ccccc32)c1OC (centres undefined), which “activity change, negative = inhibition” value is on record?
Answer: inactive: 1.15%

Question: For COc1ccc2oc(-c3ccc(C)c(NC(=O)c4sc5ccccc5c4Cl)c3)nc2c1, which “activity change, negative = inhibition” value is on record?
Answer: inactive: -1.89%

Question: With COc1ccc(N2CCN(c3oc(-c4ccccc4C)nc3S(=O)(=O)c3ccccc3)CC2)cc1 as the molecule, how does the “activity change, negative = inhibition” value read?
Answer: inactive: -5.65%

Question: For Cc1cccc(OCC(=O)Nc2c(C(=O)N3CCN(c4ccccc4)CC3)oc3ccccc23)c1, which “activity change, negative = inhibition” value is on record?
Answer: inactive: -10.3%

Question: Which “activity change, negative = inhibition” value does the source give for COc1cc(NC(=O)Cn2nc(Cc3cccnc3)c3ccccc3c2=O)cc(OC)c1OC here?
Answer: inactive: -3.02%

Question: With CCc1nc2ccccc2n1CCCCOc1ccc(Cl)cc1 as the molecule, how does the “activity change, negative = inhibition” value read?
Answer: inactive: -5.56%

Question: For CC(NCCc1ccc(O)cc1)C(O)c1ccc(O)cc1 (centres undefined), which “activity change, negative = inhibition” value is on record?
Answer: inactive: -1.31%

Question: Which “activity change, negative = inhibition” value does the source give for CCCCN(CCCC)S(=O)(=O)c1ccc(C(=O)Nc2sc3c(c2C(N)=O)CCN(CC)C3)cc1 here?
Answer: inactive: -27%

Question: For CCOc1ccccc1CNC(=O)CCCn1nc(C)c2sc3ccccc3c2c1=O, which “activity change, negative = inhibition” value is on record?
Answer: inactive: 12.1%

Question: With O=C(Nc1ccc(-c2cn3cccnc3n2)cc1)c1ccccc1F as the molecule, how does the “activity change, negative = inhibition” value read?
Answer: inactive: 37.6%

Question: With Cc1ccc(OCc2ccc(-c3nc(C#N)c(N4CCN(c5cccc(Cl)c5)CC4)o3)o2)cc1 as the molecule, how does the “activity change, negative = inhibition” value read?
Answer: inactive: -9.07%

Question: Which “activity change, negative = inhibition” value does the source give for Cc1nc2c([nH]1)c(=O)n(C)c(=O)n2Cc1ccco1 here?
Answer: inactive: 12.9%

Question: With CC1=C(C(=O)Nc2cccc(Cl)c2)C2(CCCCCC2)OC1=O as the molecule, how does the “activity change, negative = inhibition” value read?
Answer: inactive: -30.2%

Question: For COc1ccccc1NC(=O)Cn1c(=O)n(CCc2ccccc2)c(=O)c2sc3ccccc3c21, which “activity change, negative = inhibition” value is on record?
Answer: inactive: 6.59%

Question: For CCC1CN(C(=O)N2CCC(C(=O)NCCCc3ccccc3)CC2)c2ccccc2O1 (centres undefined), which “activity change, negative = inhibition” value is on record?
Answer: inactive: -25%

Question: Which “activity change, negative = inhibition” value does the source give for CCN1CCN(c2cc(C)c3cc(NC(=O)c4cc(Br)ccc4Cl)ccc3n2)CC1 here?
Answer: inactive: -29.3%

Question: Which “activity change, negative = inhibition” value does the source give for COCCCNC(=O)CSc1nc(-c2ccc(OC)cc2)[nH]c1-c1ccc(OC)cc1 here?
Answer: inactive: -16.4%

Question: With COc1ccc2oc(=O)cc(CN3CCN(c4ccccc4OC)CC3)c2c1 as the molecule, how does the “activity change, negative = inhibition” value read?
Answer: inactive: -9.37%

Question: With O=C(NCc1ccccc1Cl)c1ccc2nc(Cc3ccccc3)oc2c1 as the molecule, how does the “activity change, negative = inhibition” value read?
Answer: inactive: -9.15%

Question: Which “activity change, negative = inhibition” value does the source give for CCC(=O)N1c2ccccc2CC1C(=O)NCCN1CCN(c2cccc(Cl)c2)CC1 (centres undefined) here?
Answer: inactive: -3.8%

Question: For CC(=O)N1CCCc2cc(S(=O)(=O)N3CCC(C(=O)NCc4ccccc4Cl)CC3)ccc21, which “activity change, negative = inhibition” value is on record?
Answer: inactive: -23.4%
